Drawing on a collection of fitness landscapes (doi:10.1126/science.1257360), this text covers enrichment ratio for 153 variants.

The other results are listed elsewhere or left out.

To fix the notation:
B1: PhoQ; a variant is named by its letters at X, in order, P23837 (parent)
chain: MKKLLRLFFPLSLRVRFLLATAAVVLVLSLAYGMVALIGYSVSFDKTTFRLLRGESNLFYTLAKWENNKLHVELPENIDKQSPTMTLIYDENGQLLWAQRDVPWLMKMIQPDWLKSNGFHEIEADVNDTSLLLSGDHSIQQQLQEVREDDDDAEMTHSVAVNVYPATSRMPKLTIVVVDTIPVELKSSYMVWSWFIYVLSANLLLVIPLLWVAAWWSLRPIEALAKEVRELEEHNRELLNPATTRELTSLVRNLNRLLKSERERYDKYRTTLTDLTHSLKTPLXXLQXXLRSLRSEKMSVSDAEPVMLEQISRISQQIGYYLHRASMRGGTLLSRELHPVAPLLDNLTSALNKVYQRKGVNISLDISPEISFVGEQNDFVEVMGNVLDNACKYCLEFVEISARQTDEHLYIVVEDDGPGIPLSKREVIFDRGQRVDTLRPGQGVGLAVAREITEQYEGKIVAGESMLGGARMEVIFGRQHSAPKDE

This assay covers variants of B1. In words: enrichment ratio after two sorts for PhoP signalling (ratio (wild type AVST 3.29)); higher = more functional. As to conditions: with PhoP (E. coli).
For NEIE, the enrichment ratio was not above 0.25.
With DGTN the figure was not above 0.25.
Turning to NGAV, the enrichment ratio is not above 0.25.
For MNIN, the enrichment ratio was not above 0.25.
On to NYMS, for which the enrichment ratio is not above 0.25.
On to FAMK, for which the enrichment ratio is not above 0.25.
The same measure for PAPP: not above 0.25; for IAMF: not above 0.25; for VQMW: not above 0.25.
Regarding FWLG, the enrichment ratio was 1.07.
As for TIHN, the enrichment ratio is 1.85.
For IWQT, the enrichment ratio is not above 0.25.
In the case of MRIR, the enrichment ratio was not above 0.25.
Consider YTLW, for which the enrichment ratio was not above 0.25.
In the case of PRSW, the enrichment ratio was not above 0.25.
RRIQ: the enrichment ratio is not above 0.25.
With HAVR the figure was not above 0.25.
The same measure for RTGD: not above 0.25; for KVGQ: not above 0.25; for MFVS: not above 0.25.
On to PNKI, for which the enrichment ratio was not above 0.25.
For the variant HKTS, the enrichment ratio is not above 0.25.
With GLGY the figure was not above 0.25; with ITPI, not above 0.25.
With MEMF the figure was 0.449; with RDDG, not above 0.25; with IINM, not above 0.25.
The same measure for MAGW: not above 0.25; for LFSR: not above 0.25; for IMVL: not above 0.25.
For the variant KVFC, the enrichment ratio was not above 0.25.
The same measure for IHYH: not above 0.25; for HLVW: not above 0.25; for KLIV: not above 0.25.
With NCCC the figure was not above 0.25; with VVWG, not above 0.25; with FMMI, not above 0.25.
APAG: the enrichment ratio is not above 0.25.
As for NACV, the enrichment ratio is not above 0.25.
In the case of NCRI, the enrichment ratio was not above 0.25.
With NAPM, the enrichment ratio is not above 0.25.
In the case of APER, the enrichment ratio was not above 0.25.
The same measure for MWKF: not above 0.25; for PHHA: not above 0.25.
Turning to SNDR, the enrichment ratio is not above 0.25.
Regarding NTTL, the enrichment ratio was not above 0.25.
In the case of FCHD, the enrichment ratio was not above 0.25.
Regarding RHHY, the enrichment ratio is not above 0.25.
Turning to SGLF, the enrichment ratio is 8.98.
REYR: the enrichment ratio was not above 0.25.
Regarding IRVE, the enrichment ratio is not above 0.25.
With ANMR, the enrichment ratio came to 5.84.
With TPRV the figure was not above 0.25.
With FGDC, the enrichment ratio was not above 0.25.
As to KCAS, the enrichment ratio is not above 0.25.
In the case of GIRS, the enrichment ratio is not above 0.25.
TCNN: the enrichment ratio came out at 5.79.
SPCP: the enrichment ratio was not above 0.25.
On to NWSG, for which the enrichment ratio was not above 0.25.
In the case of TSPY, the enrichment ratio is not above 0.25.
In the case of ETHW, the enrichment ratio is not above 0.25.
As to RKPE, the enrichment ratio is not above 0.25.
Consider WRVF, for which the enrichment ratio is not above 0.25.
Consider NEVV, for which the enrichment ratio was not above 0.25.
As for KYQN, the enrichment ratio was not above 0.25.
Turning to REGN, the enrichment ratio is not above 0.25.
Turning to HQKW, the enrichment ratio was not above 0.25.
For QGSP, the enrichment ratio is not above 0.25.
As to VAGI, the enrichment ratio was not above 0.25.
Take KVQI: the enrichment ratio was not above 0.25.
With MGGM the figure was 9.49; with SFEE, not above 0.25; with IIHA, not above 0.25.
For LPCF, the enrichment ratio is not above 0.25.
In the case of SMCC, the enrichment ratio was determined as 2.5.
QMPG: the enrichment ratio is not above 0.25.
KKRC: the enrichment ratio was not above 0.25.
As to TVFT, the enrichment ratio is not above 0.25.
With AWWN the figure was not above 0.25; with FEKY, not above 0.25; with WKGD, not above 0.25.
On to FIRD, for which the enrichment ratio was not above 0.25.
Turning to YNEG, the enrichment ratio is not above 0.25.
With LRMT, the enrichment ratio was not above 0.25.
With DTCH the figure was not above 0.25; with DRRQ, not above 0.25.
Take IDCT: the enrichment ratio was not above 0.25.
Consider LQWE, for which the enrichment ratio is not above 0.25.
For the variant QEYQ, the enrichment ratio came out at 30.4.
For NFWM, the enrichment ratio was not above 0.25.
Turning to YGHW, the enrichment ratio is not above 0.25.
Consider NHWL, for which the enrichment ratio was not above 0.25.
With VTIH the figure was not above 0.25; with ATSD, not above 0.25; with IMYH, not above 0.25.
The same measure for EHRI: not above 0.25.
For the variant YLLY, the enrichment ratio was not above 0.25.
With TDMS the figure was 2.96; with MEQR, not above 0.25; with NWDQ, not above 0.25.
Consider NMWY, for which the enrichment ratio is not above 0.25.
With NLKM, the enrichment ratio is not above 0.25.
As for TIQV, the enrichment ratio was found to be 7.38.
For GSDS, the enrichment ratio is not above 0.25.
Regarding SWSM, the enrichment ratio is not above 0.25.
Turning to GRMM, the enrichment ratio was not above 0.25.
For FKQY, the enrichment ratio is not above 0.25.
With AVIL the figure was 1.98; with FMIQ, not above 0.25; with AKIP, not above 0.25.
As for GFPT, the enrichment ratio was not above 0.25.
Consider VKVP, for which the enrichment ratio is not above 0.25.
Turning to NDPW, the enrichment ratio is not above 0.25.
For MHRE, the enrichment ratio was not above 0.25.
For the variant NGGL, the enrichment ratio is not above 0.25.
RSKP: the enrichment ratio was not above 0.25.
On to FIAD, for which the enrichment ratio was not above 0.25.
As to FFLT, the enrichment ratio is not above 0.25.
THWN: the enrichment ratio is not above 0.25.
For the variant YNTW, the enrichment ratio was not above 0.25.
In the case of GWQR, the enrichment ratio is not above 0.25.
Consider QTFL, for which the enrichment ratio worked out at 1.72.
Turning to VGDQ, the enrichment ratio was not above 0.25.
With TNWC the figure was not above 0.25.
In the case of NSDM, the enrichment ratio is not above 0.25.
Take ARYA: the enrichment ratio was not above 0.25.
For the variant PVGN, the enrichment ratio was not above 0.25.
With IARG the figure was not above 0.25; with QHWW, not above 0.25.
WNEF: the enrichment ratio is not above 0.25.
For WMWN, the enrichment ratio is not above 0.25.
Turning to LAVR, the enrichment ratio is not above 0.25.
Consider RLRS, for which the enrichment ratio was not above 0.25.
In the case of LDQH, the enrichment ratio was not above 0.25.
In the case of CLPY, the enrichment ratio is not above 0.25.
DFKI: the enrichment ratio is not above 0.25.
For AKCW, the enrichment ratio is not above 0.25.
Regarding IQEF, the enrichment ratio is not above 0.25.
With NKMM the figure was not above 0.25.
Regarding YLWC, the enrichment ratio is not above 0.25.
With TPNV, the enrichment ratio is not above 0.25.
The same measure for LVWG: not above 0.25; for SENQ: 6.11; for WALI: 5.29.
In the case of HIWW, the enrichment ratio was not above 0.25.
For the variant RPPK, the enrichment ratio is not above 0.25.
For YQKR, the enrichment ratio is not above 0.25.
Consider YNNE, for which the enrichment ratio is not above 0.25.
APSP: the enrichment ratio was not above 0.25.
Consider PCNV, for which the enrichment ratio was not above 0.25.
On to LIPN, for which the enrichment ratio was not above 0.25.
For PQCH, the enrichment ratio was not above 0.25.
As for RCDT, the enrichment ratio was not above 0.25.
